# Screen size: about 230,000 compounds; about 3,600 (1.6%) were called active. The shares of active, inactive and inconclusive entries below differ from those in the screen. The call rests on the fitted dose curve; in most records, active means well fitted inhibition curve with a large enough effect (not every such curve was filed as active); inconclusive means small, poorly fitted or top-dose-only effect, or another doubt; inactive means no such curve, though single readings can be large or run the other way. Where the call is inconclusive, the potency comes from a doubtful curve fit. The source holds several records for some structures; these can differ, active in one and inactive in another.
# Target: Lysine-specific demethylase 4E (Homo sapiens) (UniProt B2RXH2)
# Assay: qHTS Assay for Inhibitors of Human Jumonji Domain Containing 2E (JMJD2E)
# Conditions: JMJD2E catalytic domain, FDH-coupled NADH fluorescence (FDH is formaldehyde dehydrogenase); series mostly up to 57.1 µM; activity change, negative = inhibition: at the top concentration
# Further: nearly all actives have a fitted effect of over 50% in size.
# Potency means the concentration at half of the fitted maximal effect; tags describe the fitted curve by direction and shape.
# 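Wherever activity change, negative = inhibition is given: 0% = wells with enzyme and -100% = buffer wells without enzyme.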
# Sequence of UniProt B2RXH2 (B2RXH2 whole entry, looked up, the tested form may be a part): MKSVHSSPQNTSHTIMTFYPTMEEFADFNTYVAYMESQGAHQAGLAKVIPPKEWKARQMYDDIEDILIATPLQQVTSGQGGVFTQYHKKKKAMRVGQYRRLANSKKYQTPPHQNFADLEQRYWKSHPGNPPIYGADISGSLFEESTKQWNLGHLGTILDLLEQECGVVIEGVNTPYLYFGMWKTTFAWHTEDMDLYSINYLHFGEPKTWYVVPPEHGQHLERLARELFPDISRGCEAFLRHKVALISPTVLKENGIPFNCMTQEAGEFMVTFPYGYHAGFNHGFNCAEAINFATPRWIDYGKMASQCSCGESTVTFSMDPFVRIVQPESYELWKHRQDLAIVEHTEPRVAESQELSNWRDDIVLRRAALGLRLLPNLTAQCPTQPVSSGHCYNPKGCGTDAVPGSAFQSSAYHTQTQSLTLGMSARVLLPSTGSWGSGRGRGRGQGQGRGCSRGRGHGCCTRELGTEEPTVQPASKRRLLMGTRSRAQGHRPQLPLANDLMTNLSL
Compound,Potency,"activity change, negative = inhibition"
CC(C)CN(C(=O)COC(=O)Cn1cnc2ccccc2c1=O)C1CCS(=O)(=O)C1 (configuration not stated),"inconclusive: 35.5 µM [inhibitor, single point]",–
O=C(Nc1nnc(SCc2ccccc2)s1)c1cccc([N+](=O)[O-])c1,–,inactive: 2.19%
Cc1cccc2[nH]c3c(N4CC=C(c5ccc(F)cc5)CC4)ncnc3c12,"inconclusive: 28.2 µM [inhibitor, partial curve]",–
COc1cc(C(=O)N2CCN(c3ccccc3OC)CC2)c([N+](=O)[O-])cc1OC,–,inactive: -14.2%
Cc1cc(N2CCOCC2)ccc1/C=C1\SC(=O)N(C(C)C)C1=O,–,inactive: 10.6%
CC1=C(/C=C/C(C)=C/C=C/C(C)=C/C(=O)Nc2ccc(O)cc2)C(C)(C)CCC1,active: 20 µM,–
Cc1nccc(-c2ccc(-n3c(C)ccc3C)cc2)n1,"inconclusive: 39.8 µM [inhibitor, single point]",–
CCCCc1nnc(NC(=O)CC(=O)Nc2ccccc2C(=O)O)s1,"inconclusive: 35.5 µM [inhibitor, single point]",–
N/C(=N\OC(=O)COc1ccc(Br)cc1)c1ccncc1,–,inactive: 3.47%
COc1ccc(OC)c(C2=NOC(C(=O)N3CCCc4ccccc43)C2)c1 (configuration not stated),"inconclusive: 31.6 µM [inhibitor, single point]",–
c1ccc2cc(-c3cc4ccccn4c3)ccc2c1,"inconclusive: 35.5 µM [inhibitor, single point]",–
COc1c(F)c(F)c(C(=O)Nc2ccccc2N2CCN(C(=O)C(C)C)CC2)c(F)c1F,–,inactive: -3.2%
Cc1ccc(NC(=O)CC(C(=O)O)c2ccccc2)cc1 (configuration not stated),–,inactive: 5.85%
Cc1ccc(/C=C/C(=O)c2c(C)cc(C)[nH]c2=O)cc1,–,inactive: 12.1%
CN(C)c1ccc(P(=O)(OC2CCCCC2)C(O)c2ccccn2)cc1 (configuration not stated),"inconclusive: 35.5 µM [inhibitor, single point]",–
Cc1ccc(-n2nnnc2SCC(=O)Nc2cccc(NC(=O)c3ccco3)c2)cc1C,"inconclusive: 31.6 µM [inhibitor, partial curve]",–
Cc1cccc(OCC(=O)NN2C(=O)C3C4C=CC(O4)C3C2=O)c1 (configuration not stated),–,inactive: -0.997%
CN1C(=O)c2ccccc2N(C)C1c1cccs1 (configuration not stated),"inconclusive: 28.2 µM [inhibitor, partial curve]",–
CCOc1ccc(NC(=O)CSc2nnc(C(C)C)n2CC)cc1,–,inactive: -2.42%
Cc1cc(=O)nc2c3ccccc3n(C(C)C(=O)Nc3cc(F)ccc3F)n12 (configuration not stated),"inconclusive: 35.5 µM [inhibitor, single point]",–
O=C(C1=C[C@H](c2csc3ccccc23)C[C@H](OCCCCO)O1)N1CCN(Cc2ccccc2)CC1,"inconclusive: 39.8 µM [inhibitor, single point]",–
COC(=O)c1cc2c(ccn2-c2ccc(F)cc2)n1C(C)C,"inconclusive: 39.8 µM [inhibitor, single point]",–
Cn1cc(CN2CCc3c([nH]c4ccccc34)C2C(C)(C)C)cn1 (configuration not stated),"inconclusive: 35.5 µM [inhibitor, single point]",–
COc1ccc2ccccc2c1/C=N/O,"inconclusive: 25.1 µM [inhibitor, single point]",–

Compound,Potency,"activity change, negative = inhibition"
COc1cc(NC(=O)c2cccs2)ccc1NC(=O)c1cc2ccccc2o1,"inconclusive: 6.31 µM [inhibitor, single point]",–
CCOC(=O)c1c(C)oc2ccc(OCC(N)=O)cc12,–,inactive: -12.1%
NC(=O)c1c(NC(=O)C2CCCO2)sc2c1CCCCC2 (configuration not stated),"inconclusive: 28.2 µM [inhibitor, single point]",–
O=C(Nc1ccc(-c2csc(Nc3cccc(C(F)(F)F)c3)n2)cc1)c1cccc(C(F)(F)F)c1,"inconclusive: 39.8 µM [inhibitor, single point]",–
NCCc1ccn[nH]1,–,inactive: -6.67% [at 25.5 µM]
Cc1ccccc1C(=O)N/N=C/c1ccccn1,"inconclusive: 39.8 µM [inhibitor, single point]",–
CCOC(=O)c1c(C)[nH]c(C(=O)COC(=O)/C=C/c2ccc(O)c(OC)c2)c1C,–,inactive: 7.39%
C/C(Cn1cnc([N+](=O)[O-])n1)=N\NC(=O)c1ccccc1O,–,inactive: -4.39%
Cc1ccc2nc(-c3ccc(SCC(=O)Nc4ccc5c(c4)OCCO5)nc3)[nH]c2c1,"inconclusive: 35.5 µM [inhibitor, partial curve]",–
CCNC(=S)NNC(=O)c1cc(-c2cccc(OC)c2)nc2ccccc12,"inconclusive: 35.5 µM [inhibitor, single point]",–
Cc1cc(O)c(Oc2cc(C)cc(O)c2O)c(O)c1,active: 12.6 µM,–
CN(C(=O)COC(=O)/C=C/c1cccc([N+](=O)[O-])c1)C1CCS(=O)(=O)C1 (configuration not stated),"inconclusive: 31.6 µM [inhibitor, single point]",–
Nc1nc2nccc(-c3ccc(Cl)cc3)n2n1,"inconclusive: 15.8 µM [inhibitor, partial curve]",–
CC[n+]1c(/C=C(\C)OC)sc2ccccc21,"inconclusive: 39.8 µM [inhibitor, single point]",–
Cn1cccc1C(=O)OCC(=O)NC1CCS(=O)(=O)C1 (configuration not stated),–,inactive: -0.966%
CNCc1cn2cc(Cl)ccc2n1,"inconclusive: 15.8 µM [inhibitor, partial curve]",–
C/C(=N\NC(=O)c1ccc([N+](=O)[O-])c(C)c1)c1ccccc1Cl,–,inactive: 5.87%
COC(=O)C1=CN(C)C=C(C(=O)OC)C1c1ccc(Cl)cc1Cl,"inconclusive: 28.2 µM [inhibitor, partial curve]",–
C=CCOc1c2ccc(C(=O)NC3CCCc4ccccc43)cc2nn1C (configuration not stated),"inconclusive: 35.5 µM [inhibitor, partial curve]",–
CN(C(=O)COC(=O)c1ccc2c(=O)n3c(nc2c1)CCC3)C1CCS(=O)(=O)C1 (configuration not stated),"inconclusive: 39.8 µM [inhibitor, single point]",–
COc1cccc(NC(=O)CCN2C(=O)c3ccc([N+](=O)[O-])cc3C2=O)c1,–,inactive: -1.09%
CC(C)[C@H](NC(N)=O)C(=O)Nc1ccc(F)c(Cl)c1,–,inactive: 5.61%
CCOC(=O)c1c2ccc(OCC(=O)N/N=C/c3ccc(C)cc3)cc2n2ccccc12,"inconclusive: 0.562 µM [inhibitor, full curve]",–

# — PubChem BioAssay AID2147 (National Center for Advancing Translational Sciences (NCATS), 2009)
